# Test results from PubChem BioAssay (NCATS).
# Several values for one entry are separate records, joined by “and”; a condition that tells them apart may be missing. Identical values can stand only once. Inconclusive results, whose numbers are uncertain, are shown with a selection of clear calls. For some assays here: A potency beside an inconclusive call is a rough fit, not a confirmed value. Activity calls are given as the source filed them. Unless noted, calls follow the shape of the dose curve; as a rule, active = well fitted curve in the direction sought with a large enough effect; inconclusive = small, poorly fitted or top-dose-only effect, or another doubt; inactive = no such curve, though single readings can be large; an effect the other way counts as inactive or inconclusive.
# Experiments:
# [1] = biological target: Aldehyde dehydrogenase, mitochondrial (Homo sapiens) (UniProt P05091); assay: qHTS for Inhibitors of the Aldehyde Dehydrogenase Family (ALDH2) Confirmatory screens (AID 2061303; active = well fitted inhibition curve with a large enough effect; inconclusive = small, poorly fitted or top-dose-only effect; inactive = no such curve, though single readings can be large or run the other way; title and protocol of this record describe different tests; also: nearly all actives have a fitted effect of over 45% in size; as to activity change, negative = inhibition: % is scaled to controls: 0 for no effect and ±100 for the full control effect); settings: ALDH inhibition qHTS; activity change, negative = inhibition: at 45.4 µM (top of the series)
# [2] = qHTS for Inhibitors of the Aldehyde Dehydrogenase Family (ALDH1A2, ALDH1A3, ALDH2, ALDH3A1) (AID 2061307); settings: ALDH inhibition qHTS; activity change, negative = inhibition: at 50.3 µM (top of the series) unless noted; also: nearly all actives have a fitted effect of over 50% in size; as to activity change, negative = inhibition: % is scaled to controls: 0 for no effect and ±100 for the full control effect; as to potency: test system not described further here
# [3] = biological target: Retinaldehyde dehydrogenase 3 (Homo sapiens) (UniProt P47895); assay: qHTS for Inhibitors of the Aldehyde Dehydrogenase Family (ALDH1A3) Confirmatory screens (AID 2061311); settings: activity change, negative = inhibition: at 46 µM (top of the series); also: nearly all actives have a fitted effect of over 60% in size; as to activity change, negative = inhibition: % is scaled to controls: 0 for no effect and ±100 for the full control effect
# [4] = biological target: Retinal dehydrogenase 2 (Homo sapiens) (UniProt O94788); assay: qHTS for Inhibitors of the Aldehyde Dehydrogenase Family (ALDH1A2) Confirmation screens (AID 2061314); settings: activity, negative = inhibition: at 45.9 µM (top of the series) unless noted; also: nearly all actives have a fitted effect of over 65% in size
# [5] = biological target: Aldehyde dehydrogenase 1A1 (Homo sapiens) (UniProt P00352); assay: qHTS for Inhibitors of the Aldehyde Dehydrogenase Family (ALDH1A1) Confirmatory screens (AID 2061316); settings: activity change, negative = inhibition: at 47.3 µM (top of the series); also: nearly all actives have a fitted effect of over 65% in size; as to activity change, negative = inhibition: % is scaled to controls: 0 for no effect and ±100 for the full control effect
# [6] = BET inhibitor-based combinations targeting novel dependencies in MECOM-rearranged (r) AML: SET-2 cell line (AID 2202231); settings: SET-2 AML cells viability, CellTiter-Glo luminescence, 48 h; viability: stronger effect = lower value, concentration not given here; also: nearly all actives have a fitted effect of over 35% in size
# Summary of the method: (§1)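 AML cell lines seeded at 500 cells/well, treated with 11-point dose curves for 48 h. Viability by CellTiter-Glo luminescence, normalised to DMSO and empty wells; activity expressed as AUC and per-cell-line Z-transformed AUC.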
# [7] = BET inhibitor-based combinations targeting novel dependencies in MECOM-rearranged (r) AML: OCI-AML3 cell line (AID 2202232); settings: CellTiter-Glo luminescence, 48 h; Potency: OCI-AML3 viability; viability (% of control): at 46 µM (top of the series); also: nearly all actives have a fitted effect of over 35% in size
# Summary of the method: as §1
# [8] = BET inhibitor-based combinations targeting novel dependencies in MECOM-rearranged (r) AML: MV-4-11 cell line (AID 2202233); settings: MV-4-11 AML viability, CellTiter-Glo luminescence, 48 h; viability, % of control: at 46 µM (top of the series) unless noted; also: nearly all actives have a fitted effect of over 45% in size;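 as to viability, % of control: plate controls were DMSO for no effect and blank wells for full effect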
# Summary of the method: (§2)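 Cells at 500/well were exposed for 48 hr to MIPE v5.0 drugs as 11-point dose curves. Viability was read by CellTiter-Glo luminescence and normalized to DMSO and empty-well controls. Activity was expressed as AUC and per-cell-line Z-AUC.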
# [9] = BET inhibitor-based combinations targeting novel dependencies in MECOM-rearranged (r) AML: HNT-34 cell line (AID 2202234); also: nearly all actives have a fitted effect of over 35% in size
# Summary of the method: as §2
# [10] = biological target: Retinaldehyde dehydrogenase 3 (Homo sapiens) (UniProt P47895); assay: qHTS for Inhibitors of the Aldehyde Dehydrogenase Family (ALDH1A3) Primary screen (AID 2061315); settings: ALDH inhibition qHTS; activity change, negative = inhibition: at 56 µM (top of the series) unless noted
# [11] = biological target: Retinaldehyde dehydrogenase 3 (Homo sapiens) (UniProt P47895); assay: qHTS for Inhibitors of the Aldehyde Dehydrogenase Family (ALDH1A3) Validation screen (AID 2061312); settings: ALDH1A3 enzyme inhibition qHTS validation, fluorescence; activity change, negative = inhibition: at 84.7 µM (top of the series); also: nearly all actives have a fitted effect of over 45% in size
# [12] = BET inhibitor-based combinations targeting novel dependencies in MECOM-rearranged (r) AML: AML-194 cell line (AID 2202237; also: nearly all actives have a fitted effect of over 40% in size)
# Summary of the method: as §1
# [13] = BET inhibitor-based combinations targeting novel dependencies in MECOM-rearranged (r) AML: UCSD-AML1 cell line (AID 2202235); settings: UCSD-AML1 AML cells viability, CellTiter-Glo, 48 h; viability (% of control): at 46 µM (top of the series); also: nearly all actives have a fitted effect of over 40% in size;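 as to viability (% of control): plate controls were DMSO vehicle wells for no effect and blank wells for full effect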
# Summary of the method: as §2
# [14] = BET inhibitor-based combinations targeting novel dependencies in MECOM-rearranged (r) AML: AML-191 cell line (AID 2202236; also: nearly all actives have a fitted effect of over 35% in size)
# Summary of the method: as §1
# Potency is read from the fitted curve at half-maximal effect; tags tell the direction and shape of the fitted curve.
structure (smiles),measurement,setting,value
CCN(CC)CCOc1ccc(/C(=C(\Cl)c2ccccc2)c2ccccc2)cc1,Potency,[1],inactive
same,Potency,[2],inactive
same,Potency,[3],"inconclusive: 11.3 µM [inhibitor, partial curve, poor fit]"
same,Potency,[4],inactive
same,Potency,[5],inactive
same,Potency,[6],"inconclusive: 37.2 µM [inhibitor, single point]"
same,Potency,[7],"inconclusive: 6.61 µM [inhibitor, partial curve, poor fit]"
same,"viability, % of control",[8],inconclusive: 0.826% [inhibitor]
same,Potency,[9],"inconclusive: 23.5 µM [inhibitor, partial curve]"
CN1CCN(c2cccc(Nc3nn4c(=O)c5ccc(N(C)C)cc5nc4s3)c2)CC1,Potency,[1],"inconclusive: 3.57 µM [inhibitor, full curve, poor fit]"
same,Potency,[2],"inconclusive: 12.7 µM [inhibitor, partial curve]"
same,Potency,[3],"inconclusive: 20.1 µM [inhibitor, partial curve]"
same,Potency,[10],"inconclusive: 31.6 µM [inhibitor, single point]"
C=CC(=O)Nc1cccc(Nc2nc(Nc3ccc(NC4CN(CCF)C4)cc3OC)ncc2C(F)(F)F)c1,Potency,[6],active: 18.6 µM
same,Potency,[8],active: 2.63 µM
CCCCN(C)C(=O)Cn1nc(-c2ccncc2)ccc1=O,Potency,[1],inactive
same,Potency,[2],inactive
same,Potency,[3],"inconclusive: 1.27 µM [inhibitor, partial curve]"
same,Potency,[5],"inconclusive: 12.7 µM [inhibitor, partial curve, poor fit]"
c1nc(NCC2CCCCO2)c2cc(-c3ccc4c(c3)OCO4)ccc2n1 (stereo not drawn),Potency,[1],"inconclusive: 22.5 µM [inhibitor, partial curve]"
same,Potency,[2],"inconclusive: 12.7 µM [inhibitor, partial curve]"
same,Potency,[3],"inconclusive: 31.8 µM [inhibitor, single point]"
same,Potency,[5],active: 12.7 µM
COc1ccc(C2Nc3ccccc3C(=O)N2Cc2ccccc2)cc1COc1ccccc1OC (stereo not drawn),Potency,[1],inactive
same,Potency,[2],"inconclusive: 0.0224 µM [inhibitor, full curve, poor fit]"
same,Potency,[3],"inconclusive: 25.2 µM [inhibitor, partial curve, poor fit]"
same,Potency,[5],"inconclusive: 22.5 µM [inhibitor, partial curve]"
N#Cc1nc(Nc2ccccc2)nc(NC2CCCCC2)n1,Potency,[1],"inconclusive: 0.282 µM [inhibitor, full curve, poor fit]"
same,Potency,[2],active: 0.708 µM
same,Potency,[3],"inconclusive: 2.82 µM [inhibitor, full curve, poor fit]"
same,Potency,[5],"inconclusive: 7.12 µM [inhibitor, full curve, poor fit]"
NC(=O)C[C@H](N)C(=O)Nc1ccc(Cl)cc1C(=O)c1ccc[nH]1,Potency,[1],inactive
same,Potency,[2],inactive
same,Potency,[3],"inconclusive: 14.2 µM [inhibitor, partial curve]"
same,Potency,[5],inactive
O=C(Nc1cncc(NC(=O)c2cccs2)c1)c1cccs1,Potency,[1],inactive
same,Potency,[2],"inconclusive: 22.5 µM [inhibitor, partial curve]"
same,Potency,[3],active: 28.3 µM
same,Potency,[5],inactive
O=[N+]([O-])c1ccccc1CSc1nc2ncc(Br)cc2[nH]1,Potency,[1],inactive
same,Potency,[2],inactive
same,Potency,[3],"inconclusive: 22.5 µM [inhibitor, partial curve]"
same,Potency,[5],active: 12.7 µM
COc1cc(O)c(C(CC(=O)N2CCCC(C(C)C)C2)c2ccc3c(c2)OCO3)c(OC)c1 (stereo not drawn),Potency,[1],inactive
same,Potency,[2],"inconclusive: 51.7 µM [inhibitor, partial curve]"
same,Potency,[3],inactive
same,Potency,[5],"inconclusive: 20.6 µM [inhibitor, partial curve]"
NC(=O)C1CCN(c2ncc(-c3ccc4c(c3)OCCCO4)s2)CC1,Potency,[1],"inconclusive: 31.6 µM [inhibitor, partial curve, poor fit]"
same,Potency,[2],"inconclusive: 0.631 µM [inhibitor, full curve, poor fit]"
same,Potency,[3],inactive
same,Potency,[5],"inconclusive: 11.3 µM [inhibitor, partial curve]"
O=[N+]([O-])c1ccc(-[n+]2nc(-c3ccccc3)nn2-c2ccc(I)cc2)cc1,Potency,[1],"inconclusive: 20.1 µM [inhibitor, partial curve]"
same,Potency,[2],"inconclusive: 17 µM [inhibitor, partial curve]"
same,Potency,[11],active: 17.8 µM
same,Potency,[4],"inconclusive: 22.5 µM [inhibitor, partial curve]"
same,Potency,[10],"inconclusive: 11.2 µM [inhibitor, partial curve]"
same,Potency,[5],"inconclusive: 25.2 µM [inhibitor, partial curve]"
CC(=O)NC(c1ccco1)c1cc(Cl)c2ccc(N3CCCCC3)nc2c1O (stereo not drawn),Potency,[1],active: 10.1 µM
same,Potency,[2],"inconclusive: 2.25 µM [inhibitor, partial curve]"
same,Potency,[3],active: 11.3 µM
same,Potency,[5],active: 2.25 µM
O=C1NC(=O)C(c2cn(-c3ccccc3)nc2-c2ccc(F)cc2)N1 (stereo not drawn),Potency,[1],inactive
same,Potency,[2],"inconclusive: 2.52 µM [inhibitor, partial curve]"
same,Potency,[3],inactive
same,Potency,[5],inactive
CC(=O)Nc1ccc(OC2=NS(=O)(=O)c3ccccc32)cc1,Potency,[1],inactive
same,Potency,[2],inactive
same,Potency,[3],"inconclusive: 11.3 µM [inhibitor, partial curve, poor fit]"
same,Potency,[5],inactive
COC(=O)Cc1cc2c(c([N+](=O)[O-])c1)N(C(=O)CC[C@H](N)C(=O)O)CC2,Potency,[1],"inconclusive: 0.1 µM [inhibitor, full curve, poor fit]"
same,Potency,[2],"inconclusive: 0.447 µM [inhibitor, full curve, poor fit]"
same,Potency,[3],"inconclusive: 25.2 µM [inhibitor, partial curve]"
same,Potency,[5],"inconclusive: 14.2 µM [inhibitor, partial curve, poor fit]"
CC(C)(C)OC(=O)NC1CCN(c2nc(-c3ccc(Br)cc3)cs2)CC1,Potency,[1],inactive
same,Potency,[2],"inconclusive: 11.3 µM [inhibitor, partial curve]"
same,Potency,[3],inactive
same,Potency,[5],inactive
CC(=O)Nc1sc2c(c1-c1nc3ccccc3s1)CCN(C(C)C)C2,Potency,[1],"inconclusive: 12.7 µM [inhibitor, partial curve, poor fit]"
same,Potency,[2],"inconclusive: 11.3 µM [inhibitor, partial curve]"
same,Potency,[3],"inconclusive: 15.9 µM [inhibitor, partial curve]"
same,Potency,[5],"inconclusive: 7.12 µM [inhibitor, partial curve]"
O=C(/C=C/c1ccc(O)cc1)c1ccc(O)cc1O,Potency,[1],inactive
same,Potency,[2],active: 1.2 µM
same,Potency,[11],"inconclusive: 1.26 µM [inhibitor, full curve]"
same,Potency,[4],"inconclusive: 28.3 µM [inhibitor, partial curve, poor fit]"
same,Potency,[5],active: 3.18 µM
same,Potency,[6],"inconclusive: 20.9 µM [inhibitor, partial curve]"
CCOc1ccc(Nc2nc(-c3c(C)nc4ccccn34)cs2)cc1,Potency,[1],"active: 15.8 µM and inconclusive: 31.6 µM [inhibitor, single point]"
same,Potency,[2],"inconclusive: 14.1 µM [inhibitor, full curve, poor fit] and active: 7.94 µM"
same,Potency,[3],"inconclusive: 7.08 µM [inhibitor, full curve] and inconclusive: 3.55 µM [inhibitor, full curve, poor fit]"
same,Potency,[9],"inconclusive: 0.132 µM [inhibitor, full curve]"
COc1ccc(S(=O)(=O)Nc2cccnc2Nc2ccc(O)cc2)cc1,Potency,[1],"inconclusive: 8.96 µM [inhibitor, partial curve]"
same,Potency,[2],"inconclusive: 10.1 µM [inhibitor, partial curve]"
same,Potency,[11],"inconclusive: 44.7 µM [inhibitor, partial curve, poor fit]"
same,Potency,[4],"inconclusive: 11.3 µM [inhibitor, partial curve]"
same,Potency,[10],active: 7.94 µM
same,Potency,[5],active: 6.34 µM
same,Potency,[12],active: 0.662 µM
S=C(NCc1ccc2c(c1)OCO2)N1CCN(c2ncnc3c2oc2ccccc23)CC1,Potency,[1],"inconclusive: 6.31 µM [inhibitor, full curve, poor fit]"
same,Potency,[2],active: 1.58 µM
same,Potency,[3],"inconclusive: 17.9 µM [inhibitor, partial curve, poor fit]"
same,Potency,[5],inactive
same,Potency,[6],"inconclusive: 13.2 µM [inhibitor, partial curve]"
same,Potency,[7],active: 2.95 µM
same,Potency,[9],"inconclusive: 20.9 µM [inhibitor, partial curve]"
same,Potency,[13],inactive
same,Potency,[14],"inconclusive: 13.2 µM [inhibitor, partial curve, poor fit]"
same,Potency,[12],"inconclusive: 23.5 µM [inhibitor, single point]"
CCN(CC)CCOCCOC(=O)C(CC)(CC)c1ccccc1,Potency,[1],inactive
same,Potency,[2],inactive
same,Potency,[11],inactive
O=C(c1ccccc1)N1CCN(c2nc(-c3ccc(Br)cc3)cs2)CC1,Potency,[1],active: 15.8 µM
same,Potency,[2],active: 15.8 µM
same,Potency,[3],"inconclusive: 11.2 µM [inhibitor, full curve, poor fit]"
same,Potency,[5],"inconclusive: 5.04 µM [inhibitor, full curve]"
Cc1ccc(CNc2ncnc3ccc(-c4ccoc4)cc23)o1,Potency,[1],"inconclusive: 0.447 µM [inhibitor, full curve, poor fit]"
same,Potency,[2],inactive
same,Potency,[3],inactive
same,Potency,[5],"inconclusive: 12.7 µM [inhibitor, partial curve, poor fit]"
O=C(c1c(F)ccc(NS(=O)(=O)N2CC[C@@H](F)C2)c1F)c1c[nH]c2ncc(-c3cnc(C4CC4)nc3)cc12,Potency,[1],"inconclusive: 20 µM [inhibitor, partial curve]"
same,Potency,[2],active: 22.4 µM
same,Potency,[3],"inconclusive: 22.4 µM [inhibitor, partial curve]"
same,Potency,[5],"inconclusive: 10.1 µM [inhibitor, partial curve]"
same,Potency,[7],"inconclusive: 14.8 µM [inhibitor, partial curve, poor fit]"
same,Potency,[8],active: 18.6 µM
same,Potency,[13],"inconclusive: 18.6 µM [inhibitor, partial curve]"
same,Potency,[14],"inconclusive: 18.6 µM [inhibitor, partial curve]"
same,Potency,[12],"inconclusive: 23.5 µM [inhibitor, partial curve]"
